# Experimental data reported in patent publication US20100183597.
# B1: Recombinant mouse GST-Drak2 (protein)
# chain: [about 200 residues not written out]MSRRRFDCRSVSGLLTTTPQTPIKTENFNNFYTLTPKELGRGKFAVVRQCISKSTGQEYAAKSLKKRRRGQDCRAEILHEIAVLELARSCPHVINLHEVYENATEIILVLEYAAGGEIFNLCLPELAEMVSENDVIRLIKQILEGVHYLHQNNIVHLDLKPQNILLSSIYPLGDIKIVDFGMSRKIGNASELREIMGTPEYLAPEILNYDPITTATDMWNIGIIAYMLLTHTSPFVGEDNQETYLNISQVNVDYSEEMFSSVSQLATDFIQSLLVKNPEKRPTAESCLSHSWLQQWDFGSLFHPEETSGSSQIQDLTLRSSEEKTSKSSCNGSCGAREDKENIPEDGSLVSKRFRFDDSLPSPHELVPDLFC
# Target: p70S6 kinase of human origin on the Invitrogen Protoarray Kinase Substrate Identification Kit, P23443
# Sequence (P23443 whole entry, looked up): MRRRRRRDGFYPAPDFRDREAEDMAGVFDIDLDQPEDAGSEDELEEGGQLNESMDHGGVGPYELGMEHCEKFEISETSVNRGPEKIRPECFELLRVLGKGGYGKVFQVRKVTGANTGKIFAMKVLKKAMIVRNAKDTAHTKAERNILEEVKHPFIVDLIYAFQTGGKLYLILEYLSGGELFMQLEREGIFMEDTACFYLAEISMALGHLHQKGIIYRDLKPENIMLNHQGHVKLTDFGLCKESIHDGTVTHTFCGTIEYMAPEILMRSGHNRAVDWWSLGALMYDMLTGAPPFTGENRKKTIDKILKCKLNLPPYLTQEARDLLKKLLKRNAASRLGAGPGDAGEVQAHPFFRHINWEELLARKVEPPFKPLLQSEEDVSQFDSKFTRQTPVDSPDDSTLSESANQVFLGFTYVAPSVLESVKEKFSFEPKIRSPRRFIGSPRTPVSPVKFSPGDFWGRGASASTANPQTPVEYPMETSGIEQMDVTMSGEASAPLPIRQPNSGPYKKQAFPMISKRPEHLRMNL
protein,measurement,value
B1,Z-score in the Invitrogen Protoarray Kinase Substrate Identification Kit (phosphorylation of arrayed proteins),"Five proteins showed a Z-score above 3, a threshold indicating more that 99.9% confidence. Among the 5 proteins, one was p70S6 kinase."
